# From the BET-seq Pho4 binding data (Le et al. 2018)
# This is one part of the list. The energies were worked out here from pooled read counts, against the library average; single values are noisy.
# Target: T1, Pho4 (S. cerevisiae) (UniProt P07270)
# T1 sequence: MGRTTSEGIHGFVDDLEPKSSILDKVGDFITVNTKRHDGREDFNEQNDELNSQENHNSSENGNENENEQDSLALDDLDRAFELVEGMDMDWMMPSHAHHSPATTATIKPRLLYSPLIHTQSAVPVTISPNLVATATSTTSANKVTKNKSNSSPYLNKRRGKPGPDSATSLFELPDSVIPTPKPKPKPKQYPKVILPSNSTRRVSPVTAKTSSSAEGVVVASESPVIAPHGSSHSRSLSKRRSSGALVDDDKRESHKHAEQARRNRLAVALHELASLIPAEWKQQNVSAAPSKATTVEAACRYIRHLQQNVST
# Assay: relative binding free energy (BET-seq); higher = weaker binding
# Conditions: reference: library average
row,Sequence,relative binding free energy [kcal/mol]
1,TTTTTCACGTGCATAG,0.17
2,TATATCACGTGCGAGG,0.14
3,GGTATCACGTGGTAGC,0.15
4,TAGGGCACGTGTAGCG,0.1
5,ATCTGCACGTGGTGTG,-0.15
6,TTCATCACGTGTGGCT,0.1
7,GTAGACACGTGGCCGT,0.06
8,AATTTCACGTGGGTGA,0.11
9,AGGCACACGTGAGGGA,0.39
10,GGTGTCACGTGTGGCT,0.17
11,ATGTGCACGTGCTGTC,0.04
12,GAATACACGTGTTGGA,0.26
13,GGTGTCACGTGACGTT,0.19
14,TCATACACGTGTTGTT,-0.02
15,TTGTCCACGTGTTAAG,0.05
16,GGTTCCACGTGCAGGG,0.12
17,AGTAACACGTGGTTAT,-0.12
18,TATGTCACGTGGAGAG,0.01
19,AGTGACACGTGTAAGA,0.19
20,TGTTCCACGTGGAAGG,0
21,TGGTACACGTGCGGGC,0.08
22,TGAGCCACGTGTTGAT,0.03
23,GTTATCACGTGGGACG,0.01
24,CTACGCACGTGGGGTA,-0.25
25,TGATGCACGTGGCTAT,-0.05

row,Sequence,relative binding free energy [kcal/mol]
1,CAGGGCACGTGGGGAG,-0.25
2,TTGTTCACGTGCGGAC,0.45
3,TTGTCCACGTGAATTG,0.32
4,GAAAGCACGTGGTTTT,-0.02
5,GTAGTCACGTGTAGCT,0.25
6,TGGCGCACGTGGATGC,-0.04
7,TGTTGCACGTGTAAGA,-0.02
8,TAGTGCACGTGCGATT,-0.02
9,CGGCTCACGTGTTGTA,0.3
10,TGTTGCACGTGCAGTT,-0.02
11,GGTTGCACGTGGGCTG,-0.16
12,GTACTCACGTGTGATG,0.14
13,CCGGTCACGTGTAGGG,0.05
14,AATTTCACGTGTATGT,0.17
15,ACGTTCACGTGGAGGT,0.03
16,GCGGACACGTGAGTAG,0.41
17,GTCGTCACGTGTGGTG,0.15
18,CGTGGCACGTGAGGTG,0.1
19,GGATGCACGTGAGAGG,0.21
20,CAGTTCACGTGTTTAT,0.17
21,CCAGGCACGTGGAGGG,-0.18
22,TTTTTCACGTGCAGGT,0.3
23,AGGAACACGTGCAGGA,0.25
24,TTAAGCACGTGATAGA,0
25,AATCGCACGTGGGTTT,-0.1

row,Sequence,relative binding free energy [kcal/mol]
1,AAACGCACGTGTTGTG,-0.04
2,GGTAACACGTGCAGGG,-0.04
3,TAATTCACGTGCGATG,0.24
4,GTCCGCACGTGATTGT,0.19
5,GAGGTCACGTGCGTAG,0
6,AGTAACACGTGTATTT,-0.11
7,ATTATCACGTGTTAAA,0.2
8,TAGTACACGTGATTTT,0.19
9,TGGAGCACGTGGGTAG,-0.18
10,AATAGCACGTGTATTA,-0.05
11,GAGGGCACGTGACGCG,0.12
12,CTTGGCACGTGTTTTG,-0.08
13,CATTTCACGTGCGGTT,0.23
14,TGGTGCACGTGGTGTT,-0.1
15,GCCTTCACGTGGGTGG,0.23
16,CTTGTCACGTGGCGTG,0.06
17,TTTCTCACGTGGGTCT,0.17
18,GGGGTCACGTGGTGTC,0.07
19,TTATGCACGTGGTGCA,-0.11
20,ACGGTCACGTGTAATG,0.09
21,CTGGGCACGTGTCGTG,0.01
22,ATCGTCACGTGAGTTG,0.1
23,CGAAGCACGTGGTGTT,-0.16
24,TTGATCACGTGCTGGG,-0.03
25,CTATGCACGTGGAAGT,0.05

row,Sequence,relative binding free energy [kcal/mol]
1,GTATCCACGTGCGGGG,0.01
2,TGGAGCACGTGGAATA,0
3,TGATTCACGTGGTGGC,0.17
4,CTCTGCACGTGTGGGG,-0.01
5,TTGGGCACGTGCGGTT,-0.14
6,CGGGGCACGTGTTTGC,-0.21
7,TAATTCACGTGGCGTG,0.11
8,GAGAGCACGTGAGTAG,0.22
9,ATCAGCACGTGGGGGC,-0.14
10,TTGAGCACGTGGTAAG,0.02
11,TCTTACACGTGTGGGT,0.12
12,TTTGGCACGTGTGGCA,-0.06
13,GTGAGCACGTGTGTGA,-0.05
14,CTTGTCACGTGAATTA,0.36
15,TAGAGCACGTGATGTG,0.07
16,GAGTCCACGTGGGGTA,0.01
17,ATGTGCACGTGGGAGC,-0.22
18,CGTAGCACGTGGGGGC,-0.25
19,GCTGCCACGTGGTTGT,-0.02
20,ATTTTCACGTGGAAAG,0.27
21,ATTGACACGTGGGGGA,-0.1
22,CTTGACACGTGAAGGG,0.18
23,GGGCTCACGTGCATGT,0.26
24,TTTAGCACGTGGTTTA,-0.11
25,TGCTACACGTGGATTG,0.08

row,Sequence,relative binding free energy [kcal/mol]
1,CGGGACACGTGAGTGG,0.29
2,TTTCACACGTGTTTGA,0
3,AAAAACACGTGGGGTT,0.03
4,ATTTTCACGTGGGGGC,0.23
5,GATGGCACGTGGTCTA,0.04
6,AGGTTCACGTGATGTC,0.45
7,GGAGCCACGTGTGGAT,-0.01
8,CACGTCACGTGTTGTT,-0.02
9,TAGGTCACGTGATCGT,0.14
10,AGGGGCACGTGCGGAA,-0.2
11,GTCGTCACGTGCGAGT,0.04
12,TAGATCACGTGCGGTG,0.1
13,GCGGGCACGTGCGGGA,-0.23
14,TTTGACACGTGTTTAG,0.04
15,GGAGTCACGTGGGGCA,0.1
16,TCACTCACGTGGGTTG,0.02
17,AGTAGCACGTGTAGCG,0.05
18,ATTTGCACGTGAGCTT,0.19
19,GGCAGCACGTGGTTTT,-0.02
20,CAAGGCACGTGAGGCG,0.07
21,AATTCCACGTGGGAGG,-0.03
22,ATTCGCACGTGGAGGT,0.02
23,ATGCACACGTGGTGCG,-0.01
24,CGGCGCACGTGTGATG,0.06
25,AATGTCACGTGAATGA,0.35

row,Sequence,relative binding free energy [kcal/mol]
1,TGGTACACGTGTGGTC,0.08
2,TAATTCACGTGGGAGT,0.35
3,GACGGCACGTGTTGTG,0.05
4,ACGAGCACGTGGTGAG,-0.06
5,ATTATCACGTGGCGTC,0.23
6,ATAGGCACGTGTTTTT,-0.01
7,TTTTGCACGTGTCGAA,-0.13
8,TATGCCACGTGCAGGT,0.01
9,TAAATCACGTGAAAGG,0.37
10,GTGCGCACGTGAGTTG,0.11
11,GTAGACACGTGCGTGT,-0.11
12,AATTGCACGTGGTCTG,-0.1
13,AATGGCACGTGGAAGT,0.01
14,AGGATCACGTGAAAGG,0.32
15,ATGTTCACGTGTCCGG,0.35
16,TGGTACACGTGGCTGG,0
17,GCGGTCACGTGGTATA,0.03
18,GTTGGCACGTGAAGAT,0.19
19,AAGGTCACGTGCTTGG,0.23
20,ATAGGCACGTGATTCG,0
21,TGATGCACGTGGAGGG,-0.14
